Variants at the background level are over-represented here.

First the molecules themselves.
B1: tRNA (parent)
chain: CUCUCGGUAGCCAAGUUGGUUUAAGGCGCAAGACUUUAAUUUAUCACUACGAAAUCUUGAGAUCGGGCGUUCGACUCGCCCCCGGGAGAUUUUUUCCUCGAGCAA

Variants of B1 are the subject of the series. Description: nonsense suppression (GFP-seq) (ratio to wild type); higher = more function; SUP4oc tRNA, yeast GFP reporter sort-seq. A digest of the protocol:
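Sorted GFP/RFP bins of yeast were each Illumina-sequenced with a phred ≥30 cutoff; the cells held a genome-integrated ochre-suppressor tRNA variant from a library with ~3% random mutations, a galactose-driven GFP ochre reporter, and RFP. Culture was in raffinose/galactose medium containing 80 mg/L adenine. Nonsense suppression, termed GFPSEQ, is the median GFP/RFP of the bins weighted by each variant's estimated cell share per bin, relative to the unmutated parent tRNA, for variants reaching ≥100 reads and ≥30 cells.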
For the variant C12U U16C G28A, the nonsense suppression came out at 0.295.

For U2G U35G G66A C82A C83G, the nonsense suppression was ≤ 0.026.

As for U2C G73C U76A, the nonsense suppression is ≤ 0.026.

Take A14U C27A G78C A87C: the nonsense suppression was ≤ 0.026.

G25C A89U: the nonsense suppression is ≤ 0.026.

G59U C64A G73C C77A: the nonsense suppression is ≤ 0.026.

C3A G84U: the nonsense suppression is ≤ 0.026.

Turning to C1U U70A C75A, the nonsense suppression was ≤ 0.026.

For the variant U4A C5A U55C U70A C75G, the nonsense suppression is ≤ 0.026.

For U21A A31G G88C, the nonsense suppression was ≤ 0.026.

C3U U8A A14U A31U G67U: the nonsense suppression is ≤ 0.026.

With C1A G28A U71C, the nonsense suppression is ≤ 0.026.

Consider A23C A54G G73U, for which the nonsense suppression is ≤ 0.026.

With U20C U55A U57C G73A, the nonsense suppression was ≤ 0.026.

For U22A A24G G61C, the nonsense suppression is ≤ 0.026.

Turning to C79G C82G, the nonsense suppression was ≤ 0.026.

Regarding U35A U57C G78C, the nonsense suppression is ≤ 0.026.

With U8A G69U, the nonsense suppression was ≤ 0.026.

On to C12A G18U U70C G88U, for which the nonsense suppression was ≤ 0.026.

With G10U C11U U55C G67A, the nonsense suppression is ≤ 0.026.

C29U A30G: the nonsense suppression is 1.1.

With A24U G59C, the nonsense suppression was ≤ 0.026.

Consider G25A C72U, for which the nonsense suppression is ≤ 0.026.

In the case of G26A U57C, the nonsense suppression was ≤ 0.026.

On to C27G U55A A60C, for which the nonsense suppression amounted to 0.809.

With U70A C83G, the nonsense suppression is ≤ 0.026.

As to G6C U20A U21A C81A, the nonsense suppression is ≤ 0.026.

Consider G26U G73C, for which the nonsense suppression is ≤ 0.026.

With U58G C81G, the nonsense suppression was ≤ 0.026.

Regarding C27A C81A, the nonsense suppression is ≤ 0.026.

For C1A A9C U17C U58G, the nonsense suppression was ≤ 0.026.

Regarding A9C A24U C75G, the nonsense suppression was ≤ 0.026.

Consider U4G G6A, for which the nonsense suppression came out at 0.0297.

As for U8C U20C G28A G32A, the nonsense suppression was ≤ 0.026.

As for A23G G67A C80A, the nonsense suppression was ≤ 0.026.

With G18C A33U, the nonsense suppression was ≤ 0.026.

For U4A G28A U70C, the nonsense suppression is ≤ 0.026.

G69U C75G: the nonsense suppression was ≤ 0.026.

U8G U16C: the nonsense suppression is ≤ 0.026.

For A13G A23C U35G G85U, the nonsense suppression is ≤ 0.026.

Take U2A A23U: the nonsense suppression was ≤ 0.026.

With A60U U71G, the nonsense suppression is ≤ 0.026.

In the case of A60U U71A, the nonsense suppression was ≤ 0.026.

With U2A A24G G25A, the nonsense suppression was ≤ 0.026.

In the case of G18U, the nonsense suppression is ≤ 0.026.

For the variant U4C C11G A74G, the nonsense suppression is ≤ 0.026.

On to C5G G32A A33G, for which the nonsense suppression is ≤ 0.026.

In the case of C27U A31U A33U, the nonsense suppression is ≤ 0.026.

Regarding A23U G32A C72G, the nonsense suppression was ≤ 0.026.

As to U35A C80G, the nonsense suppression was ≤ 0.026.

A24G U63C: the nonsense suppression was ≤ 0.026.

Take A33U C75A: the nonsense suppression is 0.192.

As to U4G G67A, the nonsense suppression was ≤ 0.026.

For A14C G26A G65C, the nonsense suppression is ≤ 0.026.

With U17G A23C, the nonsense suppression was ≤ 0.026.

Consider A14U G25A C64A A74U, for which the nonsense suppression was ≤ 0.026.

With A9U G69U, the nonsense suppression is ≤ 0.026.

Take C3U A23C: the nonsense suppression was ≤ 0.026.

Turning to U58G C83G, the nonsense suppression is ≤ 0.026.

Turning to G19A A23G U71A, the nonsense suppression is ≤ 0.026.

With G10U A23U, the nonsense suppression is ≤ 0.026.

Take U58C G73A: the nonsense suppression is 0.0472.

With G28C C64U, the nonsense suppression was 0.0765.

Regarding G7C G18C G73A, the nonsense suppression was ≤ 0.026.

As for G73A G84A, the nonsense suppression came to 0.191.

C1G C11U A24G: the nonsense suppression is ≤ 0.026.

For the variant A14C G25U U63C G84U, the nonsense suppression is ≤ 0.026.

Take U2C U8A G19A G67C G85U: the nonsense suppression was ≤ 0.026.

With U8G U21G A23C, the nonsense suppression was ≤ 0.026.

Consider C11U A13G U22A C80U, for which the nonsense suppression was ≤ 0.026.

As for A14C C68U G88A, the nonsense suppression was ≤ 0.026.

For G7U U35C A89G, the nonsense suppression was ≤ 0.026.

Consider C27U C80A, for which the nonsense suppression is ≤ 0.026.

Turning to U57C G67A C77A, the nonsense suppression was ≤ 0.026.

Regarding G28A A74C, the nonsense suppression is ≤ 0.026.

G6U C11G U55C: the nonsense suppression was ≤ 0.026.

For U8C C11A C56U, the nonsense suppression is ≤ 0.026.

On to G19A C68G, for which the nonsense suppression was ≤ 0.026.

Regarding A24G G25C U76A, the nonsense suppression was ≤ 0.026.

On to U16C G73C G86U, for which the nonsense suppression is ≤ 0.026.

On to C1A G66C, for which the nonsense suppression was ≤ 0.026.

For the variant U17C C77A C81G G86A, the nonsense suppression is ≤ 0.026.

For C5U A89G, the nonsense suppression is ≤ 0.026.

In the case of U20G A24U G67U, the nonsense suppression was ≤ 0.026.

For U22G U58G U76C, the nonsense suppression was ≤ 0.026.

Consider G10A C34A, for which the nonsense suppression is ≤ 0.026.

With A13G C82G, the nonsense suppression is ≤ 0.026.

For the variant A60G G69U C79G, the nonsense suppression is ≤ 0.026.

On to C11G A31U, for which the nonsense suppression was ≤ 0.026.

Turning to C29G U76A, the nonsense suppression was ≤ 0.026.

Consider U4G G19A A30G, for which the nonsense suppression is ≤ 0.026.

Turning to G32U C34U C81A, the nonsense suppression is ≤ 0.026.

Take G25U U71C: the nonsense suppression was ≤ 0.026.

With G84C G86A, the nonsense suppression is ≤ 0.026.

As for U2G G32C, the nonsense suppression is ≤ 0.026.

As for G25C U71C A74G, the nonsense suppression is ≤ 0.026.

For the variant C11G G59C, the nonsense suppression is ≤ 0.026.

Consider C1A A9G A31G G59C G73U, for which the nonsense suppression was ≤ 0.026.

For A13U C34U C81G, the nonsense suppression was ≤ 0.026.

As to U22C G59A A87U, the nonsense suppression was ≤ 0.026.

For C75A C81U G86A, the nonsense suppression is ≤ 0.026.

Take C11G A31G A33G C34U C75A: the nonsense suppression was ≤ 0.026.

Turning to G67U U70A G73A A74C C81A, the nonsense suppression is ≤ 0.026.

On to G6U U20G C29A, for which the nonsense suppression is ≤ 0.026.

In the case of U35G A89C, the nonsense suppression was ≤ 0.026.

Consider C1G G18C A23G A31U, for which the nonsense suppression was ≤ 0.026.

Turning to A9C U16C G88C, the nonsense suppression is ≤ 0.026.

Regarding C64G G66C G69A, the nonsense suppression is ≤ 0.026.

Regarding U2C U71A U76A, the nonsense suppression is ≤ 0.026.

As for U8A C68G A74C, the nonsense suppression was ≤ 0.026.

For the variant G6U U63C, the nonsense suppression was ≤ 0.026.

C5G A62G: the nonsense suppression was ≤ 0.026.

Take C3U U55A U63A: the nonsense suppression was ≤ 0.026.

In the case of U58A G67U, the nonsense suppression was ≤ 0.026.

For the variant U71C U76A, the nonsense suppression was ≤ 0.026.

With C3U U22A A24G, the nonsense suppression is ≤ 0.026.

A24C U76C: the nonsense suppression came to 0.88.

Take G65U C77A: the nonsense suppression is ≤ 0.026.

In the case of U16C A23U C79U, the nonsense suppression was ≤ 0.026.

For G19U A24G U63A U71A C80G A87U, the nonsense suppression is ≤ 0.026.

In the case of G84U G88C, the nonsense suppression is ≤ 0.026.

Take U2C G85C: the nonsense suppression is ≤ 0.026.

As to G18C U63G, the nonsense suppression was ≤ 0.026.

With G7C A13U G26U C77G, the nonsense suppression is ≤ 0.026.

As for C11U C34A A54U, the nonsense suppression was ≤ 0.026.

G7C A23G: the nonsense suppression is ≤ 0.026.

Consider A54U C56G G85U, for which the nonsense suppression was ≤ 0.026.

For the variant U58C A89C, the nonsense suppression was ≤ 0.026.

With U17C C27G U63C G69A U71A G73C, the nonsense suppression is ≤ 0.026.

As to U20C G85A, the nonsense suppression came out at 0.861.

With A14G G19U, the nonsense suppression was ≤ 0.026.

On to C1A G18A, for which the nonsense suppression is ≤ 0.026.

A54U C64U: the nonsense suppression was found to be 0.0513.

G7U U71G C82A G85C: the nonsense suppression is ≤ 0.026.

Consider A30G C79A, for which the nonsense suppression is ≤ 0.026.

In the case of C56G C83A, the nonsense suppression is ≤ 0.026.

In the case of U8C G32U U58G A89C, the nonsense suppression is ≤ 0.026.

U35G U57G G67A: the nonsense suppression was ≤ 0.026.

As to U2C G15A C34U C56A, the nonsense suppression was ≤ 0.026.

With U17A C27U U58G G61C C75A G78C, the nonsense suppression is ≤ 0.026.

Turning to G6C G32A C56A, the nonsense suppression is ≤ 0.026.

As for U17G C75U A87G, the nonsense suppression was 0.77.

A31G U71A G73A C77U: the nonsense suppression was ≤ 0.026.

Consider A24G U35G A87U, for which the nonsense suppression is ≤ 0.026.

Regarding U2A C11G G78U A87C, the nonsense suppression is ≤ 0.026.

For C1U U17A C56A G65A C75A, the nonsense suppression is ≤ 0.026.

Take C29A G78C: the nonsense suppression was ≤ 0.026.

Consider C5U C11U G15A G18U U20A A30U C56U U76A G86A, for which the nonsense suppression was ≤ 0.026.

In the case of G18A G32A C64G, the nonsense suppression was ≤ 0.026.

As for A14C A33U U35C C80U, the nonsense suppression was ≤ 0.026.

Turning to U4A G19A A31U A62G, the nonsense suppression was ≤ 0.026.

For C11G A60G C80U, the nonsense suppression was ≤ 0.026.

Take U8G A9C U58C: the nonsense suppression is ≤ 0.026.

For C11U A89C, the nonsense suppression was ≤ 0.026.

Consider C11A A13C G25U, for which the nonsense suppression was ≤ 0.026.

As for G6C A9U G65U G85C, the nonsense suppression was ≤ 0.026.

For C11G U16G, the nonsense suppression was ≤ 0.026.

Take U8A G67U C77G G78U: the nonsense suppression is ≤ 0.026.

For the variant G25U G67U G86A, the nonsense suppression is ≤ 0.026.

With C12U A14C A31C, the nonsense suppression was ≤ 0.026.

As for A24G C56A U76C, the nonsense suppression is ≤ 0.026.

Turning to U17G U20C G66U, the nonsense suppression was ≤ 0.026.

For A24U C64U, the nonsense suppression was ≤ 0.026.

As to C12U C34U U70A G73U C81G G84U, the nonsense suppression was ≤ 0.026.

As for G7A U20G C34U U57C C64A C79U G88C, the nonsense suppression was ≤ 0.026.

Consider C3U A14G A62G C80G C81G A89U, for which the nonsense suppression was ≤ 0.026.

Regarding G85C A89C, the nonsense suppression was ≤ 0.026.
